Laboratory results as given in a collection of fitness landscapes (doi:10.1016/j.celrep.2020.107928).
The full ranking holds about 81,000 sequences; the median of “one-hybrid fitness for binding NBS DNA” is about -0.1, and the highest 2% start at about 0.36. The list shows a part of the results.

B1: Caulobacter ParB omega fusion; a variant is named by its letters at X, in order, B8GW30 (parent)
chain: MESVVVGEPGMSEGRRGLGRGLSALLGEVDAAPAQAPGEQLGGSREAPIEILQRNPDQPRRTFREEDLEDLSNSIREKGVLQPILVRPSPDTAGEYQIVAGERAWRAAQRAGLKTVPIMVRELDDLAVLEIGIIENVQRADLNVLEEALSYKVLMEKFERTQENIAQTIGKSXSHVANXMRLLXLPDEVQSYLVSGELTAXHARAIAAAADPVALAKQIIEGGLSVRETEALARKAPNLSAGKSKGGRPPRVKDTDTQALESDLSSVLGLDVSIDHRGSTGTLTITYATLEQLDDLCNRLTRGI

Variants of: B1
Assay: one-hybrid fitness for binding NBS DNA (the Noc-binding site; scaled: cognate 1, non-cognate 0); higher = stronger binding
Settings: with NBS DNA site
Method in brief: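 The reporter was HIS3, with the binding site 19 bp from the promoter, in E. coli USO used for bacterial one-hybrid selection of Caulobacter ParB libraries with four specificity codons randomised. Growth was on M9 lacking histidine, with 0.1 mM IPTG and 5 mM 3-AT, for 48 hours at 37°C. Illumina sequencing covered plasmids before and after selection; three replicate libraries were pooled and variants with under 10 reads dropped. A fitness score is the log change in variant-to-wild-type read ratio, rescaled to the cognate and non-cognate references.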

one-hybrid fitness for binding NBS DNA, 0.378:
RRSK

one-hybrid fitness for binding NBS DNA, 0.224:
QCNM

one-hybrid fitness for binding NBS DNA, ≤ 0.2:
VNPA
MFTE
CCVS
WRGW
GCFT
PQYI
IMVS
NCLY
PTYW
ICPL
RQAQ
FAWT
NNHG
RLVD
WYAG
PRDK
KNQM
WRIF
QYQK
TMRD
RMND
DYRL
NLPL
DQSS
PTLE
VIMT
RVAD
ISYK
VRGV
STVL
ELAH
HCSL
SGKS
MGMR
HPFM
SNAN
CLIA
GAAP
ITIT
WTPE
KFMS
HSYI
LKHL
YRTL
HHDT
YCTS
SQSL
YKTG
AVLF
AMGP
YDNT
LHPV
FRMG
PFPC
GSYP
EPLI
IIGI
ASGN
FLDK
GRNS
VIEN
SCIS
WCRK
GGET
MISY
GYTR
KKSY
HQWG
VARD
NTQS
MGKS
PGDL
DSQG
DQTS
YPNS
WDSP
TRMA
SGKF
DEPL
IKCC
IESL
SSPW
RLGN
ASPG
PLIQ
QENG
LCAE
CRKW
DNSC
TRQM
RYSM
TSRW
MRSR
VGNT
HCRV
KLPH
RHEC
PPYS
AKLF
RIND
CKFS
SSEA
NEPT
KAMC
RPAE
DRPT
EEYA
GNTK
VNAL
HPNN
IRTQ
LHVN
CCYS
YRQS
TQVP
EPNC
YGQG
TVHC
WGLF
NTEY
RGFD
SIMG
RSQL
TNEG
RCEL
MRPK
AGII
TRSF
FTHT
TVNC
PCPP
ALYM
AGFS
SLGM
DEMR
GNQG
GRIF
PTGI
YHIF
FWMR
SFLY
SYWS
QLGF
RDNG
IQFG

one-hybrid fitness for binding NBS DNA, 0.237:
RCHC

one-hybrid fitness for binding NBS DNA, 0.557:
RCNS

one-hybrid fitness for binding NBS DNA, 0.332:
QKKG

one-hybrid fitness for binding NBS DNA, 0.265:
QQNC

one-hybrid fitness for binding NBS DNA, 0.306:
QMTA

one-hybrid fitness for binding NBS DNA, 0.785:
RRNT
